Substitutions are numbered along the chain they refer to; changes in the protein carry UniProt numbers. The list shows a part of the results.
T1: RBFOX1 RRM (Homo sapiens, UniProt Q9NWB1 109-208)
T1 sequence: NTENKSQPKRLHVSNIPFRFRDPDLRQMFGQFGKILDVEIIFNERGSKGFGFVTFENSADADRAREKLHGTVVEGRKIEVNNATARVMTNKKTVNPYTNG

B1: AUGACUC (DNA:RNA)
RNA: GGGAGACCGGAAUUCAGAUUGUCCAUGACUCUUAAAUCCCGUCGUAGCCACCA
DNA 1: CAATCTGAATTCCGGTCTCCC
DNA 2: TGGTGGCTACGACGGGATT
B2: UUCUUAG (DNA:RNA)
RNA: B1 RNA with A25U, G27C, A28U, C29U, U30A, C31G
DNA 1: CAATCTGAATTCCGGTCTCCC
DNA 2: TGGTGGCTACGACGGGATT
B3: AUACCAC (DNA:RNA)
RNA: B1 RNA with G27A, A28C, U30A
DNA 1: CAATCTGAATTCCGGTCTCCC
DNA 2: TGGTGGCTACGACGGGATT
B4: CGUACAA (DNA:RNA)
RNA: B1 RNA with A25C, U26G, G27U, U30A, C31A
DNA 1: CAATCTGAATTCCGGTCTCCC
DNA 2: TGGTGGCTACGACGGGATT
B5: CAGAACG (DNA:RNA)
RNA: B1 RNA with A25C, U26A, C29A, U30C, C31G
DNA 1: CAATCTGAATTCCGGTCTCCC
DNA 2: TGGTGGCTACGACGGGATT
B6: UCCGGUA (DNA:RNA)
RNA: B1 RNA with A25U, U26C, G27C, A28G, C29G, C31A
DNA 1: CAATCTGAATTCCGGTCTCCC
DNA 2: TGGTGGCTACGACGGGATT
B7: AAUACUC (DNA:RNA)
RNA: B1 RNA with U26A, G27U
DNA 1: CAATCTGAATTCCGGTCTCCC
DNA 2: TGGTGGCTACGACGGGATT
B8: UCAGCGU (DNA:RNA)
RNA: B1 RNA with A25U, U26C, G27A, A28G, U30G, C31U
DNA 1: CAATCTGAATTCCGGTCTCCC
DNA 2: TGGTGGCTACGACGGGATT
B9: GUAUUAA (DNA:RNA)
RNA: B1 RNA with A25G, G27A, A28U, C29U, U30A, C31A
DNA 1: CAATCTGAATTCCGGTCTCCC
DNA 2: TGGTGGCTACGACGGGATT

biological target: T1, RBFOX1 RRM; assay: EMSA; HiTS-Eq, 1 nM pool, 10 min; buffer printed only for the single-RNA assays: 10 mM Tris pH 7.5, 150 mM NaCl, 3.4 mM EDTA, 0.001% NP-40, 30 C; conditions: tags: His6 N-terminal (pET28a); label: 5' 32P
Method in brief: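 A pool of RNA with 7 randomized nucleotides, 5′-radiolabelled and with DNA-annealed flanks, was equilibrated at 1 nM for 10 min in 50 µL with purified RbFox RRM, wild type or mutant, across increasing protein concentrations. Free RNA was separated by 8% native PAGE, excised, reverse-transcribed, barcoded by PCR and sequenced. Relative association constants were obtained from read-count changes of each RNA species versus the control reaction and normalised to the cognate motif.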

Binder	binding signal
B1	0.0107 KA relative to UGCAUGU
B2	0.00996 KA relative to UGCAUGU
B3	0.00168 KA relative to UGCAUGU
B4	0.00407 KA relative to UGCAUGU
B5	0.00737 KA relative to UGCAUGU
B6	0.00405 KA relative to UGCAUGU
B7	0.00125 KA relative to UGCAUGU
B8	0.0131 KA relative to UGCAUGU
B9	0.00181 KA relative to UGCAUGU
